# According to the supplement of paper PMC11060735:
# “And” between values parts separate entries of the source, which are not always exact repeats. Equal values may be shown once. Where a name gives a salt, the structure may show the parent alone. Among all 1,800 compounds or so, about 50 (3%) showed activity. The list shows a part of the results. Square brackets hold non-standard residues; d marks the D form. Peptide text beside a SMILES is read from it. pGlu = O=C1CC[C@@H](C(=O)O)N1; Thz = O=C(O)[C@@H]1CSCN1
# Test system: mouse p16Ink4a+/- lung fibroblasts (INKBRITE, bleomycin-injured)
# Assay: percentage of GFP+ (p16Ink4a+) fibroblasts among all cells in well; higher = less depletion of p16Ink4a+ cells, active = 20 or less
# Details: 1 µM; 3 days
# 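Further: fibroblasts sorted 14 days after bleomycin, GFP+ and GFP− mixed 1:1 in 384-well plates (GFP− as in-well control), imaged after Hoechst and NucView530 staining, reference wells lacked compound.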
row,SMILES,percentage of GFP+
1,CC(=O)OCC(=O)NCCCOc1cccc(CN2CCCCC2)c1 [Roxatidine acetate],inactive: 41.6%
2,OC[C@@H](O)[C@@H](O)[C@H](O)[C@H](O)CO [Mannitol],inactive: 35.6%
3,O=C1CC[C@@H](C(=O)N2CSC[C@H]2C(=O)O)N1 [Pidotimod] ([pGlu]-[Thz]-OH),inactive: 37.8%
4,CCOc1ccc(Cc2cc([C@@H]3O[C@H](CO)[C@@H](O)[C@H](O)[C@H]3O)ccc2Cl)cc1 [Dapagliflozin],inactive: 38.4%
5,N=C(N)NC(=O)c1nc(Cl)c(N)nc1N [Amiloride],inactive: 33.1%
6,CCCc1ncc(C[n+]2ccccc2C)c(N)n1 [Amprolium],inactive: 49.9%
7,COc1cc2c(cc1OC)[C@@H]1Cc3ccc(OC)c(OC)c3CN1CC2 [Rotundine],inactive: 40.2%
8,CC(C(=O)O)c1cccc(Oc2ccccc2)c1 (stereo not drawn) [Fenoprofen],inactive: 51.2%
9,Cc1cccc(-c2[nH]c(C(C)(C)C)nc2-c2ccc3nccnc3c2)n1,inactive: 42.9%
10,Oc1ccc(Nc2nc(-c3ccc(Cl)cc3)cs2)cc1,inactive: 44.5%
11,O=[N+]([O-])c1cn2c(n1)OC[C@@H](OCc1ccc(OC(F)(F)F)cc1)C2,inactive: 54.8%
12,COc1ccc2c(c1)c(C1=C(c3c[nH]c4ccccc34)C(=O)NC1=O)cn2CCCN(C)C,inactive: 60.7%
13,Nc1nccc2c1ncn2[C@@H]1C=C(CO)[C@@H](O)[C@H]1O [3-Deazaneplanocin A (DZNeP)],inactive: 30.1%
14,Cn1cc(CNCC2CCN(c3ncc(C(=O)NO)cn3)CC2)c2ccccc21 [Quisinostat],active: 1.92%
15,CNC(=O)c1nn(C)c2c1C(C)(C)Cc1cnc(Nc3ccc(N4CCN(C)CC4)cc3)nc1-2 [Milciclib],inactive: 44.1%
16,O=C(CCCCCN1C(=O)c2cccc3cccc(c23)C1=O)NO [Scriptaid],inactive: 37.6%
17,S=C(NCc1ccc2c(c1)OCO2)N1CCN(c2ncnc3c2oc2ccccc23)CC1 [Amuvatinib],inactive: 36.1%
18,CC(C)(O)[C@H]1CC[C@@](C)([C@H]2[C@@H](O)C[C@@]3(C)[C@@H]4C[C@H](O[C@@H]5O[C@H](CO)[C@@H](O)[C@H](O)[C@H]5O)[C@H]5C(C)(C)[C@@H](O[C@@H]6OC[C@@H](O)[C@H](O)[C@H]6O)CC[C@@]56C[C@@]46CC[C@]23C)O1 [Astragaloside A],inactive: 52.4%
19,c1ccc(CN(CC2=NCCN2)c2ccccc2)cc1 [Antazoline],inactive: 48.8%
20,Nc1ccc2ncnc(NCCc3ccc(Oc4ccccc4)cc3)c2c1,inactive: 39.5%
21,Oc1c(Br)cc(Br)c2cccnc12 [Broxyquinoline],inactive: 50%
22,O=C(O)c1ccc(/C=C2/SC(=S)N(c3cccc(C(F)(F)F)c3)C2=O)cc1,inactive: 42.2%

row,SMILES,percentage of GFP+
1,C[C@@H](O)[C@H]1C(=O)N2C(C(=O)OCOC(=O)C(C)(C)C)=C(SC3CN(C4=NCCS4)C3)[C@H](C)[C@H]12 [Tebipenem Pivoxil],inactive: 45.1%
2,CN(C)CC(=O)Nc1ccc2nc(O)c3ccccc3c2c1,inactive: 39.8%
3,O=C(O)Cc1ccccc1Nc1c(Cl)cccc1Cl [Diclofenac],inactive: 44% and inactive: 47% and inactive: 40.1%
4,N#Cc1ccc(C(c2ccc(C#N)cc2)n2cncn2)cc1 [Letrozole],inactive: 26.3%
5,CNC(=O)c1cc(Oc2ccc(NC(=O)Nc3ccc(Cl)c(C(F)(F)F)c3)c(F)c2)ccn1 [Regorafenib],inactive: 32.6%
6,CCc1ccc(CCOc2ccc(CC3SC(=O)NC3=O)cc2)nc1 (stereo not drawn) [Pioglitazone],inactive: 36.4% and inactive: 38%
7,NS(=O)(=O)c1cc(Cl)c(Cl)c(S(N)(=O)=O)c1 [Diclofenamide],inactive: 45.6%
8,CC(C)CN(C[C@@H](O)[C@H](Cc1ccccc1)NC(=O)O[C@H]1CO[C@H]2OCC[C@H]21)S(=O)(=O)c1ccc(N)cc1 [Darunavir],inactive: 45.7%
9,"Cc1ccc(NC(=O)c2ccc(CN3CCN(C)CC3)cc2)cc1Nc1nccc(-c2cccnc2)n1 [Imatinib, Imatinib Mesylate]",inactive: 32.5% and inactive: 39%
10,Nc1ccn([C@H]2CC[C@@H](CO)O2)c(=O)n1 [Zalcitabine],inactive: 43.3%
11,C[C@H]1[C@H](C)C[C@@H](C(=O)O)C2CC[C@]3(C)C(=CC[C@@H]4[C@@]5(C)CC[C@H](O)C(C)(C)[C@@H]5CC[C@]43C)[C@@H]21 (stereo partly drawn) [Ursolic Acid],inactive: 36%
12,CN(C)CCOc1ccc(-c2nc(-c3ccc4c(c3)CC/C4=N\O)c(-c3ccncc3)[nH]2)cc1,inactive: 33%
13,CN(C)[C@@H](CCOc1cccc2ccccc12)c1ccccc1 [Dapoxetine],inactive: 42.1%
14,CCCSc1ccc2[nH]c(NC(=O)OC)nc2c1 [Albendazole],inactive: 39.7%
15,C[C@]12CC[C@@H]3c4ccc(O)cc4CC[C@H]3[C@@H]1C[C@@H](O)[C@@H]2O [Estriol],inactive: 49.2%
16,C=C1/C(=C/C=C2/CCC[C@]3(C)[C@@H]([C@H](C)CCCC(C)C)CC[C@@H]23)C[C@@H](O)C[C@@H]1O [Alfacalcidol],inactive: 25.5%
17,COc1cc(-c2cc3ccccc3[nH]2)[nH]c1/C=C1\N=C(C)C=C1C [Obatoclax Mesylate],inactive: 73.2%
18,Nc1ccc(O)c(C(=O)O)c1 [Mesalazine],inactive: 38.5%
19,O=c1ncccn1[C@@H]1O[C@H](CO)[C@H](O)C1O (stereo partly drawn) [Zebularine],inactive: 40.4%
20,C[C@@H](O[C@H]1OCCN(Cc2nc(O)n(P(=O)(O)O)n2)[C@H]1c1ccc(F)cc1)c1cc(C(F)(F)F)cc(C(F)(F)F)c1 [Fosaprepitant],inactive: 50.2%
21,Cc1cc2c(F)c(Oc3ncnn4cc(OC[C@@H](C)OC(=O)[C@H](C)N)c(C)c34)ccc2[nH]1 [Brivanib Alaninate],inactive: 35.2%
